Target: the molecule itself
Assay: PIE-FCCS

B1: EphA4 receptor (receptor)
chain: not shown
stoichiometry N: 2

From paper doi:10.1101/2021.04.11.439330 (bioRxiv, 2021)
